Here are results for 44 compounds from publication PMC4336329 (PLoS ONE, 2015).

Each structure is given as a SMILES string. About 2,200 (0.71%) of roughly 310,000 compounds showed an effect of 50% or more. Effects have a minus sign here. The list shows a part of the results.

human ether-à-go-go-related gene (hERG) potassium channel, sequence (Q12809 whole entry, looked up): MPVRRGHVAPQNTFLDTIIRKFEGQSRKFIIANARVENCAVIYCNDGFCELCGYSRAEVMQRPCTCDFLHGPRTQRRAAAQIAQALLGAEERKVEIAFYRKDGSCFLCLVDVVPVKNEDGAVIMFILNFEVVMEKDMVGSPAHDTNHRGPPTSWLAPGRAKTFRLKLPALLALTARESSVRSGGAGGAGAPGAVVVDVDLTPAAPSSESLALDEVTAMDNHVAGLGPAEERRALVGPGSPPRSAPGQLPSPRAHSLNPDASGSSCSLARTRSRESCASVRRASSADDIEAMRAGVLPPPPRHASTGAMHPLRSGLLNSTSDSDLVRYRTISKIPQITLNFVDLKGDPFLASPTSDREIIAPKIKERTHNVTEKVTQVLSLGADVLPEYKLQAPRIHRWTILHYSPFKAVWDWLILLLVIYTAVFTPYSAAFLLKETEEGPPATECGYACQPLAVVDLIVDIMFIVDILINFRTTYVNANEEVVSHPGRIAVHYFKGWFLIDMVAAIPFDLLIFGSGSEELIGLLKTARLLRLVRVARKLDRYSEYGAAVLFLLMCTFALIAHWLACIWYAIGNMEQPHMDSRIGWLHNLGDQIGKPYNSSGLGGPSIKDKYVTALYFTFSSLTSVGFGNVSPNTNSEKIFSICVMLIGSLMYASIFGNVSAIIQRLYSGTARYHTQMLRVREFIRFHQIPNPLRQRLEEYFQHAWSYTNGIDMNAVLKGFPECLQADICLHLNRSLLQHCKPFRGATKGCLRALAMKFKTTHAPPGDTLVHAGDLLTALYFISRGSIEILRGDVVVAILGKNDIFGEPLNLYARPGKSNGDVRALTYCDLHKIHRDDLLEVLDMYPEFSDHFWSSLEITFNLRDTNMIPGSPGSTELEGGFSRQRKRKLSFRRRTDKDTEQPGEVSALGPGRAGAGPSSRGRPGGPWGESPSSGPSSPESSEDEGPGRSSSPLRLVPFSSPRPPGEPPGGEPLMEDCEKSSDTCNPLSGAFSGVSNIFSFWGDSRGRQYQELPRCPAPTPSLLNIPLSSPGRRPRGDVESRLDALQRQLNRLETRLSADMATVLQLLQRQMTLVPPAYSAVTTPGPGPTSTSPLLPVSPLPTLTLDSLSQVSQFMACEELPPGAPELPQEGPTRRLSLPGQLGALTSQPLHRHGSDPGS

This assay addresses human ether-à-go-go-related gene (hERG) potassium channel (human, UniProt Q12809). Description: primary screen, population patch clamp on CHO cells stably expressing hERG.
For the compound `Cc1ccc(C)c2nc(Cl)c(C3NC(=O)c4ccccc4N3)cc12` (centres unmarked), the “hERG current change (%, negative = inhibition) at 1uM” value worked out at 1.73%.
For the compound `CC(C(=O)N1CCN(C=O)CC1)N1C(=O)c2ccccc2C1=O` (centres unmarked), the “hERG current change (%, negative = inhibition) at 1uM” value came to 8.38%.
With `COc1cccc(NC(=O)CSc2nc(C)cs2)c1`, the “hERG current change (%, negative = inhibition) at 1uM” value turned out to be 7.37%.
As for `CCc1nc(SCC(=O)Nc2cc(C)ccc2OC)c2c(C)c(C)sc2n1`, the “hERG current change (%, negative = inhibition) at 1uM” value turned out to be 12.7%.
`COc1ccc(NS(=O)(=O)c2cc(NC(=O)CC(=O)c3ccc([N+](=O)[O-])cc3)ccc2C)cc1`: the “hERG current change (%, negative = inhibition) at 1uM” value came to 3.67%.
In the case of `COCCn1cnc2c1c(=O)n(CC(=O)NC(=O)NC(C)(C)C)c(=O)n2Cc1ccccc1`, the “hERG current change (%, negative = inhibition) at 1uM” value came out at 11.3%.
To `O=C(Cn1cnc(S(=O)(=O)N2CCCC2)c1)Nc1cccc(F)c1` belongs 14.4%; to `CNC(=O)COC(=O)c1cc2c(s1)CCCC2`, 15.8%.
Consider `CSc1nc(=O)n(-c2ccccc2)c(C)c1C(C)=O`, for which the “hERG current change (%, negative = inhibition) at 1uM” value stood at 14.8%.
Consider `O=C(CCCN1C(=O)/C(=C/c2cccs2)SC1=S)NNC(=O)c1ccccc1O`, for which the “hERG current change (%, negative = inhibition) at 1uM” value is listed as 6.7%.
Consider `O.O=C(NCc1nc2ccccc2[nH]1)c1ccc(Cl)c(S(=O)(=O)N2CCCC2)c1`, for which the “hERG current change (%, negative = inhibition) at 1uM” value was 9.93%.
To `S=C(NCCc1ccccc1)N1CCOCC1` belongs 12.3%.
To `CCN1CCN(C(c2cccs2)C(C)NC(=O)CC(C)C)CC1` (centres unmarked) belongs -9.05%.
Regarding `O=C(CSc1nnc(-c2ccccc2Cl)o1)N1CCCC1`, the “hERG current change (%, negative = inhibition) at 1uM” value was found to be 4.3%.
In the case of `Cc1ccccc1NC(=O)C1CCN(c2cc(-c3ccccc3)nc3ncnn23)CC1`, the “hERG current change (%, negative = inhibition) at 1uM” value is recorded as 5.72%.
Regarding `CCOc1ccc(N2C(=O)/C(=C\c3ccc(OC)c(O)c3)S(=O)(=O)C2c2cccc([N+](=O)[O-])c2)cc1` (centres unmarked), the “hERG current change (%, negative = inhibition) at 1uM” value is 7.83%.
`Cc1ccc(CN2CCNC(=O)C2CC(=O)O)o1` (centres unmarked): the “hERG current change (%, negative = inhibition) at 1uM” value is 11%.
To `CCCCSCc1cc(C(=O)O)oc1C(C)(C)C` belongs -0.127%; to `CCN(CC)C(NC(=O)c1ccccc1)C(=O)c1ccccc1` (centres unmarked), -2.1%.
As to `O=C(CN1CCN(Cc2cccc(Cl)c2)C1=O)NCc1ccccn1`, the “hERG current change (%, negative = inhibition) at 1uM” value is recorded as 6.19%.
For `Cc1c(CCOC(=O)CC23CC4CC(CC(C4)C2)C3)sc[n+]1Cc1ccccc1.[Cl-]` the value was -12.4%.
To `Br.Cc1ccc(-c2csc3nc(=O)c(C)nn23)cc1` belongs 3.75%.
Consider `CCOc1ccc(CN2CCN(Cc3cn(CC)nc3C)CC2CCO)cc1` (centres unmarked), for which the “hERG current change (%, negative = inhibition) at 1uM” value is given as -6.11%.
Consider `COC(=O)c1ccc(N2CN=C(c3ccc(C)cc3)NC2=S)cc1`, for which the “hERG current change (%, negative = inhibition) at 1uM” value turned out to be 17.6%.
To `CCOc1ccc2[nH]c3c(NCCN(C)C)ncnc3c2c1` belongs 14.4%.
To `C[C@@H]1CC[C@H]2[C@@H](C)C(=O)O[C@@H]3O[C@@]4(C)CC[C@@H]1[C@]32OO4` belongs 7.37%.
On to `COC(=O)C(C#N)c1nc2ccccc2nc1N1CCN(Cc2ccc3c(c2)OCO3)CC1` (centres unmarked), for which the “hERG current change (%, negative = inhibition) at 1uM” value is listed as 7.71%.
For `COc1ccc(OC)c2[nH]c(=O)c(CCNC(=O)CC(C)C)cc12` the value was 7.35%.
As to `Cc1cnc(NC(=O)COc2ccccc2)s1`, the “hERG current change (%, negative = inhibition) at 1uM” value came to 10.8%.
As to `Cc1cc(C)n(-c2ccc(C(=O)N3CCC(CO)(Cc4ccccc4)CC3)cc2)n1`, the “hERG current change (%, negative = inhibition) at 1uM” value came out at 11.7%.
To `COc1cccc(N2C(=O)CN(Cc3ccc(OC)c(OC)c3)C2=S)c1` belongs 17.2%; to `Cc1ccc(C)c(S(=O)(=O)N2CCN(CC(=O)Nc3ccc([N+](=O)[O-])cc3)CC2)c1`, 4.71%.
For the compound `CCC(CC)C(=O)Nc1nnc(S(=O)(=O)Nc2ccc(OC)cc2)s1`, the “hERG current change (%, negative = inhibition) at 1uM” value turned out to be 11.3%.
`CC(=O)c1cnc(N2CCCCC2)nc1C`: the “hERG current change (%, negative = inhibition) at 1uM” value is 3.99%.
For `CC(C)Sc1cc(N2CCOCC2)nc(-c2ccccc2)n1`, the “hERG current change (%, negative = inhibition) at 1uM” value is 0.991%.
Turning to `CN1CCN(C(=O)/C(=C\c2cccs2)NC(=O)c2cccs2)CC1`, the “hERG current change (%, negative = inhibition) at 1uM” value is listed as -77.3%.
As to `COc1ccc(OC)c(NC(=S)NC(=O)c2ccc(Br)o2)c1`, the “hERG current change (%, negative = inhibition) at 1uM” value came to 12.6%.
To `CCCCn1c(N)c(N(CCOC)C(=O)c2ccc(N3CCCC3=O)cc2)c(=O)[nH]c1=O` belongs 3.72%; to `COc1ccc(CN2C(=NC(=O)COc3ccccc3)SC3CS(=O)(=O)CC32)cc1` (centres unmarked), -4.32%; to `COc1cc(NC(=O)Cn2cnc3c(nc4n3CCCCC4)c2=O)cc(OC)c1OC`, 20.8%.
For `CSc1nnc(CNC(=O)C23CC4CC(CC(C4)C2)C3)n1Cc1ccccc1` the value was 14.5%; for `Cn1c(N)c(C(=O)CSc2nnnn2-c2ccccc2)c(=O)n(C)c1=O`, 16%.
For the compound `Cc1ccc(S(=O)(=O)n2nc(OC(=O)c3ccccc3F)cc2N)cc1`, the “hERG current change (%, negative = inhibition) at 1uM” value is reported as 12.6%.
For `COc1ccc(OC)c2[nH]c(=O)c(CCNC(=O)c3ccc(S(=O)(=O)N(C)C)cc3)cc12` the value was 11.8%.
